{"source": "patent US11618753B2", "about": "(priority 2018, dated 2023)", "note": "Counter-ions that a name gives are not always drawn."}
{"system": "MLKL phosphorylation, HT29-L23 human colorectal adenocarcinoma cells", "assay": "cells", "conditions": "read-out: pMLKL HCS Cell Assay (IC50, uM)", "units": {"IC50": "µM"}}
{"molecule": "[2H]C([2H])([2H])Oc1ncc(-c2cc(C(F)(F)F)c3c(N)ncnn23)cc1C(=O)N[C@@H]1CN(C(=O)c2ccc(F)cc2)C[C@@H]1F", "note": "[Example 376, 5-[4-amino-5-(trifluoromethyl)pyrrolo [2,1-f][1,2,4]triazin-7-yl]-N-[(3R,4S)-4-fluoro-1-(4-fluorobenzoyl)pyrrolidin-3-yl]-2-(deutero)methoxypyridine-3-carboxamide]", "IC50": 0.0091}
{"molecule": "Cc1cc(F)c(-c2cc(C(F)(F)F)c3c(N)ncnn23)cc1C(=O)N[C@@H]1CN(C(=O)CC(C(F)(F)F)C(F)(F)F)C[C@@H]1F", "note": "[Example 799, 5-[4-amino-5-(trifluoromethyl)pyrrolo[2,1-f][1,2,4]triazin-7-yl]-4-fluoro-N-[(3R,4S)-4-fluoro-1-[4,4,4-trifluoro-3-(trifluoromethyl)butanoyl]pyrrolidin-3-yl]-2-methylbenzamide]", "IC50": 0.0048}
{"molecule": "Nc1ncnn2c(-c3ccc(OCC(F)(F)F)c(C(=O)N[C@@H]4CN(C(=O)C5CC(F)C5)C[C@@H]4F)c3)cc(C(F)(F)F)c12", "note": "(stereo partly drawn) [Example 1071, 5-[4-amino-5-(trifluoromethyl)pyrrolo[2,1-f][1,2,4]triazin-7-yl]-N-[(3R,4S)-4-fluoro-1-(3-fluorocyclobutanecarbonyl)pyrrolidin-3-yl]-2-(2,2,2-trifluoroethoxy)benzamide]", "IC50": 0.131}
{"molecule": "Cc1c(F)cc(-c2cc(C(F)(F)F)c3c(N)ncnn23)cc1C(=O)N[C@@H]1CN(C(=O)C2CC(F)C2)C[C@@H]1F", "note": "(stereo partly drawn) [Example 678, 5-[4-amino-5-(trifluoromethyl)pyrrolo[2,1-f][1,2,4]triazin-7-yl]-3-fluoro-N-[(3R,4S)-4-fluoro-1-(3-fluorocyclobutanecarbonyl)pyrrolidin-3-yl]-2-methylbenzamide]", "IC50": 0.0029}
{"molecule": "COc1ncc(-c2cc(CN3CCOCC3)c3c(N)ncnn23)cc1C(=O)N[C@@H]1CN(S(=O)(=O)CC(F)(F)F)C[C@@H]1F", "note": "[Example 1719, 5-(4-amino-5-(morpholinomethyl)pyrrolo[2,1-f][1,2,4]triazin-7-yl)-N-((3R,4S)-4-fluoro-1-((2,2,2-trifluoroethyl)sulfonyl)pyrrolidin-3-yl)-2-methoxynicotinamide]", "IC50": 0.0011}
{"molecule": "Cc1ncc(-c2cc(C(F)(F)F)c3c(N)ncnn23)cc1C(=O)Nc1cn(Cc2ccc(F)cc2)cn1", "note": "[Example 1802, 5-(4-amino-5-(trifluoromethyl)pyrrolo[2,1-f][1,2,4]triazin-7-yl)-N-(1-(4-fluorobenzyl)-1H-imidazol-4-yl)-2-methylnicotinamide]", "IC50": 0.00045}
{"molecule": "C[C@@](O)(C(=O)N1C[C@H](F)[C@H](NC(=O)c2cccc(-c3cc(C(F)(F)F)c4c(N)ncnn34)c2F)C1)C(F)(F)F", "note": "[Example 774, 3-[4-amino-5-(trifluoromethyl)pyrrolo[2,1-f][1,2,4]triazin-7-yl]-2-fluoro-N-[(3R,4S)-4-fluoro-1-[(2R)-3,3,3-trifluoro-2-hydroxy-2-methylpropanoyl]pyrrolidin-3-yl]benzamide]", "IC50": 0.022}
{"molecule": "CCC(O)(C(=O)N1C[C@H](F)[C@H](NC(=O)c2c(C)ccc(-c3cc(C(F)(F)F)c4c(N)ncnn34)c2F)C1)C(F)(F)F", "note": "(stereo partly drawn) [Example 745, 3-[4-amino-5-(trifluoromethyl)pyrrolo[2,1-f][1,2,4]triazin-7-yl]-2-fluoro-N-[(3R,4S)-4-fluoro-1-[2-hydroxy-2-(trifluoromethyl)butanoyl]pyrrolidin-3-yl]-6-methylbenzamide]", "IC50": 0.0049}
{"molecule": "Nc1ncnn2c(-c3cccc(C(=O)NCCC(O)c4ccc(F)cc4)c3)cc(C(F)(F)F)c12", "note": "(centres unmarked) [Example 74, 3-[4-amino-5-(trifluoromethyl)pyrrolo[2,1-f][1,2,4]triazin-7-yl]-N-[3-(4-fluorophenyl)-3-hydroxypropyl]benzamide]", "IC50": 0.03}
{"molecule": "Cc1ccnc(C(=O)N2C[C@H](F)[C@H](NC(=O)c3cc(-c4cc(C(F)(F)F)c5c(N)ncnn45)c(F)cc3C)C2)c1", "note": "[Example 839, 5-[4-amino-5-(trifluoromethyl)pyrrolo[2,1-f][1,2,4]triazin-7-yl]-4-fluoro-N-[(3R,4S)-4-fluoro-1-(4-methylpyridine-2-carbonyl)pyrrolidin-3-yl]-2-methylbenzamide]", "IC50": 0.019}
{"molecule": "Nc1ncnn2c(-c3cccc(C(=O)N[C@@H]4CN(C(=O)C5(F)CCC5)C[C@@H]4F)c3)cc(C(F)(F)F)c12", "note": "[Example 93, 3-[4-amino-5-(trifluoromethyl)pyrrolo[2,1-f][1,2,4]triazin-7-yl]-N-[(3R,4S)-4-fluoro-1-(1-fluorocyclobutanecarbonyl)pyrrolidin-3-yl]benzamide]", "IC50": 0.022}
{"molecule": "C[C@@](O)(C(=O)N1C[C@H](F)[C@H](NC(=O)c2ccc(F)c(-c3cc(C(F)(F)F)c4c(N)ncnn34)c2)C1)C(F)(F)F", "note": "[Example 426, 3-[4-amino-5-(trifluoromethyl)pyrrolo[2,1-f][1,2,4]triazin-7-yl]-4-fluoro-N-[(3R,4S)-4-fluoro-1-[(2R)-3,3,3-trifluoro-2-hydroxy-2-methylpropanoyl]pyrrolidin-3-yl] benzamide, TFA]", "IC50": 0.0074}
{"molecule": "COc1ncc(-c2cc(C(F)(F)F)c3c(N)ncnn23)cc1C(=O)N[C@@H]1CN(C(=O)c2cnc(Cl)s2)C[C@@H]1F", "note": "[Example 1667, 5-(4-amino-5-(trifluoromethyl)pyrrolo[2,1-f][1,2,4]triazin-7-yl)-N-((3R,4S)-1-(2-chlorothiazole-5-carbonyl)-4-fluoropyrrolidin-3-yl)-2-methoxynicotinamide]", "IC50": 0.073}
{"molecule": "Nc1ncnn2c(-c3ccc(CF)c(C(=O)N[C@@H]4CN(C(=O)C5(F)CC5)C[C@@H]4F)c3)cc(C(F)(F)F)c12", "note": "[Example 916, 5-[4-amino-5-(trifluoromethyl)pyrrolo[2,1-f][1,2,4]triazin-7-yl]-N-[(3R,4S)-4-fluoro-1-(1-fluorocyclopropanecarbonyl)pyrrolidin-3-yl]-2-(fluoromethyl)benzamide]", "IC50": 0.015}
{"molecule": "COc1ncc(-c2cc(C(F)(F)F)c3c(N)ncnn23)cc1C(=O)N[C@@H]1CN(C(=O)C(C)(C)N(C)C(=O)OC(C)(C)C)C[C@@H]1F", "note": "[Example 1669, tert-butyl (1-((3R,4S)-3-(5-(4-amino-5-(trifluoromethyl)pyrrolo[2,1-f][1,2,4]triazin-7-yl)-2-methoxynicotinamido)-4-fluoropyrrolidin-1-yl)-2-methyl-1-oxopropan-2-yl)(methyl)carbamate]", "IC50": 0.231}
{"molecule": "Cc1nc(C)c(-c2cc(C(F)(F)F)c3c(N)ncnn23)cc1C(=O)N[C@@H]1CN(C(=O)C2(F)CC2)C[C@@H]1F", "note": "[Example 1182, 5-[4-amino-5-(trifluoromethyl)pyrrolo[2,1-f][1,2,4]triazin-7-yl]-N-[(3R,4S)-4-fluoro-1-(1-fluorocyclopropane-carbonyl)pyrrolidin-3-yl]-2,6-dimethylpyridine-3-carboxamide]", "IC50": 0.139}
{"molecule": "Cc1ncc(-c2cc(C(F)(F)F)c3c(N)ncnn23)cc1C(=O)N[C@@H]1CN(C(=O)CC(C)(O)C(F)(F)F)C[C@@H]1F", "note": "(stereo partly drawn) [Example 1234, 5-[4-amino-5-(trifluoromethyl)pyrrolo[2,1-f][1,2,4]triazin-7-yl]-N-[(3R,4S)-4-fluoro-1-(4,4,4-trifluoro-3-hydroxy-3-methylbutanoyl)pyrrolidin-3-yl]-2-methylpyridine-3-carboxamide]", "IC50": 0.012}
